Reference: the supplement of paper PMC11417369
± gives the standard deviation of the averaged measurements. The list shows a part of the results.

system: PfAP2-I AP2 domain 3 (GST-tagged); assay: gcPBM binding intensity (ln(normalized median fluorescence intensity)); higher = stronger DNA binding
How it was run: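 In this array assay, P. falciparum DNA-binding domains with a GST tag, expressed in E. coli, were applied for 1 h to primer-extended double-stranded 36-bp intergenic genomic probes and negative controls on an Agilent 4 × 180k array. Bound protein was visualised with Alexa488 anti-GST antibody at 488 nm. Binding intensity is the highest Masliner-normalised natural-log median intensity across replicate spots of either probe orientation.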

Sequence | gcPBM binding intensity (ln)
TAATGTATCTAAAATTGTACAAATATAAATCTAAAT [XGTACX_site1197] | 7.87 ± 0.28
CGCGCCCAGAAACACACACACACACCGATATATATA [CACACA_site5250] | 8.45 ± 0.6
ACAAAGATAAAACATAAAATATATCAAACATAAAAT [XGTACX_negctrl_site198] | 7.51 ± 0.64
AATAAATATAAATACACACCCATATAAATATAAATA [CACACA_site7264] | 7.78 ± 0.67
AAAAAAAATACATGTTGTACGGTACAAATATAAAGT [XGTACX_site2863] | 8.45 ± 0.44
ATATATCTTCTTTGCACACTTAAAGGGAAGTGATAA [CACACA_site342] | 9.46 ± 0.13
AAAATAATAAAAAAAAAAAAAAAAAAAAAAAAGTAT [TGCATGCA_negctrl_site193] | 7.63 ± 0.65
AAAAAAATAATAAAATGTACAAATAAACACATAAAG [XGTACX_site5102] | 8.04 ± 0.53
AAATAAAATAAAACAACACACACGAATGTATAAATA [CACACA_site885] | 7.71 ± 0.64
TACAACAAGTAATGGTGTACATTATATTATGTAATA [XGTACX_site1194] | 7.73 ± 0.47
TATAACAATTTTTATGCATGCGACTATAATATTTTT [TGCATGCA_site508] | 7.63 ± 0.66
TACATATTGAATAAGACACACATATATATATATATA [CACACA_site1878] | 9.32 ± 0.38
TAAGGATTGGTATAAAGTACAGGAGTAAATTGAAAA [XGTACX_site8525] | 7.95 ± 0.55
CATACACATATATATTGTACACATATATGTATGTAT [XGTACX_site4030] | 7.64 ± 0.34
ATATTTTTTTTTTATTGTACCCTCATAAAAGAAAAG [XGTACX_site773] | 8.03 ± 0.42
TATATACACGCACATACACACAAATAAAAAAACACC [CACACA_site7578] | 9.055 ± 0.035
TGTGTTGTAATTAAAACACACATGAAAAAATTAAAA [CACACA_site51] | 7.82 ± 0.64
GTATTATTCTATAGAAGTACAGTATATTATTATTTA [XGTACX_site5073] | 8.05 ± 0.18
TTTTTTATTCCATAATATAATATGTTTTGAAATTTG [GTGCAC_negctrl_site440] | 7.53 ± 0.61
ATATACATATCAATGTAATATTATATACTTTTTTAG [CACACA_negctrl_site816] | 7.43 ± 0.51
AAAAAAATAAATAAATGTACATATATAAAACATTGT [XGTACX_site2136] | 7.84 ± 0.33
ATATAATTATATTCCATACACACATATATTTAAAGG [CACACA_site2958] | 7.8 ± 0.47
AAACGAGAACATAATAAATACATAAATAAATAAATA [GTGCAC_negctrl_site433] | 8.02 ± 0.76

Sequence | gcPBM binding intensity (ln)
ATTAATAATATTACATGTACATAATATAATTGAAAA [XGTACX_site5084] | 7.79 ± 0.19
TTTATTTTATTCACTATCATAAGCAAAACTTAAACA [GTGCAC_negctrl_site287] | 7.6 ± 0.4
ATTTTTTTTTTTTTTTTTTTTTTTTTTTTTGTTGTT [CACACA_negctrl_site1313] | 7.67 ± 0.32
TAGTTAATATGATTATGTACATATATATATTAATTT [XGTACX_site1750] | 7.55 ± 0.3
TTAGATATTATTATATGTACATATTATATGTATTAT [XGTACX_site3836] | 7.74 ± 0.41
ATAATATATTTATAAACACACAAAAAAAGTTATATA [CACACA_site6831] | 7.55 ± 0.55
TGTATATGAAAAAATAGTACTCATATAAATATCTTT [XGTACX_site6542] | 7.63 ± 0.64
TTAATCCACAGACACACACACACAAAATAAAATACA [CACACA_site244] | 8.06 ± 0.16
TTATTTATGAAGTATACACACAATATATATATATAT [CACACA_site1248] | 9.01 ± 0.45
TAGTTCTTTTAATTTAGTATTATACAATATTGGAAA [CACACA_negctrl_site521] | 7.49 ± 0.47
AATATATTAAATATTACACACATACATTTAGTGTAA [CACACA_site5145] | 7.72 ± 0.4
TATATATTAAACTTTGCACACATAATTTAACTACAA [CACACA_site3440] | 8.86 ± 0.26
AATATGTGTATAGATAGTACACATGCTGATAATATA [XGTACX_site5941] | 7.82 ± 0.59
AAAATTTTGGAACGTGCACACATATGTAATATATAT [CACACA_site9004] | 10.2 ± 0.48
TTTTTAAAATATTTAACACACAATTATAATGCATAA [CACACA_site3932] | 8.885 ± 0.035
AGTAGTCTGGAGAAATGTACACAGTATCTGGTAGCT [XGTACX_site4871] | 7.64 ± 0.64
AATAATAAATAAATGTGTACTTAAAAATATTATATT [XGTACX_site3005] | 7.76 ± 0.41
CAAAGTATTATGATTACACACATGTGCTTTTTTCTT [CACACA_site163] | 7.82 ± 0.57
TTGTATCATATATTATGTACATATTGATTTATTACC [XGTACX_site12] | 7.88 ± 0.26
ATGTCCTATATTAGTACACACATGAAAATATAAATA [CACACA_site7497] | 8.26 ± 0.29
AACCATACACAAATAAACATAGACACAGATACCTCC [CACACA_negctrl_site598] | 7.75 ± 0.61
AATATAAAAAAAAACAAAAAAAAAATTTTGGTTCAC [CACACA_negctrl_site1290] | 7.38 ± 0.7
TTATTGTTATTTGTTTGTACATAATATAATATATTA [XGTACX_site6477] | 7.71 ± 0.33

Sequence | gcPBM binding intensity (ln)
TCCTATGATGATGATAGTACATATGAGTTCAAAAAA [XGTACX_site273] | 7.93 ± 0.49
ACAATTAATCAAACAAGTACAAAATATATCCCTATT [XGTACX_site6223] | 7.87 ± 0.47
TATATTTATTTATATACACACATAATAAAAAATATA [CACACA_site6527] | 7.75 ± 0.32
TACTTATTGTGATACTTATATTATTTTATGATTAAA [XGTACX_negctrl_site353] | 7.57 ± 0.35
TATTAATGATAAAAAAGTACATTATTATATGATATT [XGTACX_site4235] | 7.66 ± 0.49
TAAGTCATATAAATGTGTACATAAAAAAAAAAAATG [XGTACX_site1645] | 8.14 ± 0.39
TTTTTTTTTTTTTTTTCACACATTGTACTTTTTTAT [CACACA_site5193] | 8.18 ± 0.76
ATCATTTGCATACGCACACACACATAAAAAGAAAAA [CACACA_site355] | 8.735 ± 0.078
TCTATCAAATTTGAAGGTACACATTTGAGATAATTA [XGTACX_site3797] | 7.57 ± 0.32
ATTATACAAATTGAGGTGCATGAAACAAAATATGAA | 9.755 ± 0.021
ATATTTTTTTTTTTATGTACTTATTTATAATTATTT [XGTACX_site5279] | 7.92 ± 0.63
AGCTTGTAACAGTTTACACACTAATATTTATAAATT [CACACA_site6024] | 8.04 ± 0.46
CTTATAAGAATACTAGTGCACATAATTTAACGAAAA | 11 ± 0.59
CACCAAAATATATGTACATATGATAAATGTGAATAT [GTGCAC_negctrl_site83] | 8.13 ± 0.57
TTTTACAATATTTTGTGTACTTATATTATGAGCTTA [XGTACX_site3287] | 7.72 ± 0.5
AAAATTATCGTTATATGTACGCATCTTAATACGTAT [XGTACX_site4063] | 7.79 ± 0.4
GTCTATATATTTTAGGTGCAACGTAAATGTAAAAAT | 9.76 ± 0.11
AACTTTAAACCCTGAACACACACAAATACACCCAAA [CACACA_site7971] | 8.705 ± 0.064
ATAATCCACAAGCACACACACACACCCATATATATA [CACACA_site1268] | 8.4 ± 0.61
TATATATATATATATATATATATATATGTATATATG [XGTACX_negctrl_site242] | 9.2 ± 0.91
AAAAAAAAAAAAAAAGGTACACAAAACGGTATTATT [XGTACX_site7064] | 8.56 ± 0.51
ATACATATTAATATGTGTACACATTTTTATTTTTTT [XGTACX_site930] | 7.95 ± 0.45
AACTCATAGGAGTGTGCACACAAAAAATTAAAAAAA [CACACA_site8996] | 9.52 ± 0.42

Sequence | gcPBM binding intensity (ln)
TTTTTTTTTTTTGTCACACATATGGAATATATCTAT [CACACA_site5899] | 8.06 ± 0.76
TTTTTTTTTTTTTTTGCACACATTTTAATTATTTTT [CACACA_site341] | 9.11 ± 0.33
CTCAAAAAATATGAACGTACAAAATAAGTAATGACA [XGTACX_site590] | 7.99 ± 0.62
TTATATTTATTTAATGAACACACGATATATTATTTT [CACACA_site1601] | 7.63 ± 0.54
TTTTAAAAAAGAAAAAAAAAGGATCAGAGAAATATT [GTGCAC_negctrl_site79] | 7.68 ± 0.71
TTGTAGATATTTATATGTACGAATTTATAAATATAG [XGTACX_site3611] | 7.92 ± 0.26
AAAAAAATTAATAATGTGCACTTTTTAGTATTTTTA [GTGCAC_site9744] | 10.24 ± 0.071
AAATGTTAATTAAATGCATGTACAAAAGGAGCGAAT [TGCATGCA_site942] | 9.01 ± 0.4
TTTGTCAACCAAAATTGTACAAATGTATTCCCAATA [XGTACX_site1350] | 7.57 ± 0.64
TTATTTATCAAAAAATGTACAAAAATATATAAACAA [XGTACX_site940] | 7.93 ± 0.47
ATTATTTTATGAGACATAAAAAAAAAAAAAAAAAAA [CACACA_negctrl_site1067] | 8.03 ± 0.61
AGATGAGAGATATATACACACAATAATACCTATTTA [CACACA_site6542] | 7.58 ± 0.73
TTTTTATTCCAGTATTCACACACGAATAACCACATA [CACACA_site1897] | 7.97 ± 0.61
ATTTTCTTTTTTAAACGTACACATATTAAATATATA [XGTACX_site7773] | 8.34 ± 0.4
AATAAATTCATGAATTGTACGTAATGATAACATGAA [XGTACX_site2591] | 7.93 ± 0.57
TTATAACTTTTCACAAGTACATATATATATGTATAA [XGTACX_site2306] | 7.84 ± 0.23
TTTGGAAAGCGTGATTTTTGACAAACACAAAAAAAA [CACACA_negctrl_site651] | 7.62 ± 0.75
ATATATATGTTTTTATGTACATATTTTTCTCCTTCA [XGTACX_site5899] | 7.99 ± 0.7
TAATATCGTATATGAGTGCAATATTTTAGATTTTGA | 10.6 ± 0.59
AATATATCAAAAATGATGACATAAATATATTAATTT [GTGCAC_negctrl_site530] | 7.38 ± 0.66
